Results: patent publication US9714221B1 (priority 2016, dated 2017)

Test system: MCF7 cells (breast tumor cells) WT
Assay: cells
Details: Homo sapiens, read-out: proliferation MCF7 (WT) IC50 (nM)

Oc1ccc(C2=C(c3ccc(O[C@H]4CCN(CCCF)C4)cc3)c3cc(O)ccc3CCC2)cc1 [Example 1, 5-[4-[(3S)-1-(3-fluoropropyl)pyrrolidin-3-yl]oxyphenyl]-6-(4-hydroxyphenyl)-8,9-dihydro-7H-benzo[7]annulen-3-ol]
IC50: 0.6 nM

Oc1cccc(C2=C(c3ccc(O[C@H]4CCN(CCCF)C4)cc3)c3cc(O)ccc3CCC2)c1 [Example 2, 5-[4-[(3S)-1-(3-fluoropropyl)pyrrolidin-3-yl]oxyphenyl]-6-(3-hydroxyphenyl)-8,9-dihydro-7H-benzo[7]annulen-3-ol]
IC50: 1 nM

Oc1ccc2c(c1)C(c1ccc(O[C@H]3CCN(CCCF)C3)cc1)=C(c1ccc3[nH]ccc3c1)CCC2 [Example 3, 5-[4-[(3S)-1-(3-fluoropropyl)pyrrolidin-3-yl]oxyphenyl]-6-(1H-indol-5-yl)-8,9-dihydro-7H-benzo[7]annulen-3-ol]
IC50: 9 nM

Oc1ccc2c(c1)C(c1ccc(O[C@H]3CCN(CCCF)C3)cc1)=C(c1ccc(F)cc1Cl)CCC2 [Example 4, 6-(2-chloro-4-fluoro-phenyl)-5-[4-[(3S)-1-(3-fluoropropyl)pyrrolidin-3-yl]oxyphenyl]-8,9-dihydro-7H-benzo[7]annulen-3-ol]
IC50: 5 nM

Cc1c(Cl)cccc1C1=C(c2ccc(O[C@H]3CCN(CCCF)C3)cc2)c2ccc(O)cc2CCC1 [Example 7, 6-(3-chloro-2-methyl-phenyl)-5-[4-[(3S)-1-(3-fluoropropyl)pyrrolidin-3-yl]oxyphenyl]-8,9-dihydro-7H-benzo[7]annulen-2-ol]
IC50: 0.2 nM

Oc1ccc(C2=C(c3ccc(O[C@H]4CCN(CCCF)C4)cc3)c3ccc(O)cc3CCC2)c(F)c1 [Example 10, 6-(2-fluoro-4-hydroxy-phenyl)-5-[4-[(3S)-1-(3-fluoropropyl)pyrrolidin-3-yl]oxyphenyl]-8,9-dihydro-7H-benzo[7]annulen-2-ol]
IC50: 7 nM

Oc1ccc2c(c1)CCCC(c1ccc3[nH]ccc3c1)=C2c1ccc(O[C@H]2CCN(CCCF)C2)cc1 [Example 12, 5-[4-[(3S)-1-(3-fluoropropyl)pyrrolidin-3-yl]oxyphenyl]-6-(1H-indol-5-yl)-8,9-dihydro-7H-benzo[7]annulen-2-ol]
IC50: 28 nM

Oc1ccc2c(c1)CCCC(c1ccc(Cl)c(F)c1)=C2c1ccc(O[C@H]2CCN(CCCF)C2)cc1 [Example 16, 6-(4-chloro-3-fluoro-phenyl)-5-[4-[(3S)-1-(3-fluoropropyl)pyrrolidin-3-yl]oxyphenyl]-8,9-dihydro-7H-benzo[7]annulen-2-ol]
IC50: 3 nM

Cc1cc(F)ccc1C1=C(c2ccc(O[C@H]3CCN(CCCF)C3)cc2)c2ccc(O)cc2CCC1 [Example 17, 6-(4-fluoro-2-methyl-phenyl)-5-[4-[(3S)-1-(3-fluoropropyl)pyrrolidin-3-yl]oxyphenyl]-8,9-dihydro-7H-benzo[7]annulen-2-ol]
IC50: 0.2 nM

Oc1ccc2c(c1)CCCC(c1ccc(Cl)cc1Cl)=C2c1ccc(O[C@H]2CCN(CCCF)C2)cc1 [Example 18, 6-(2,4-dichlorophenyl)-5-[4-[(3S)-1-(3-fluoropropyl)pyrrolidin-3-yl]oxyphenyl]-8,9-dihydro-7H-benzo[7]annulen-2-ol]
IC50: 0.7 nM

Oc1ccc2c(c1)CCCC(c1ccc3cc[nH]c3c1)=C2c1ccc(O[C@H]2CCN(CCCF)C2)cc1 [Example 19, 5-[4-[(3S)-1-(3-fluoropropyl)pyrrolidin-3-yl]oxyphenyl]-6-(1H-indol-6-yl)-8,9-dihydro-7H-benzo[7]annulen-2-ol]
IC50: 5 nM

Oc1ccc2c(c1)CCCC(c1cccc3[nH]ccc13)=C2c1ccc(O[C@H]2CCN(CCCF)C2)cc1 [Example 20, 5-[4-[(3S)-1-(3-fluoropropyl)pyrrolidin-3-yl]oxyphenyl]-6-(1H-indol-4-yl)-8,9-dihydro-7H-benzo[7]annulen-2-ol]
IC50: 5 nM

Oc1ccc2c(c1)CCCC(c1ccc3c(c1)CCN3)=C2c1ccc(O[C@H]2CCN(CCCF)C2)cc1 [Example 21, 5-[4-[(3S)-1-(3-fluoropropyl)pyrrolidin-3-yl]oxyphenyl]-6-indolin-5-yl-8,9-dihydro-7H-benzo[7]annulen-2-ol]
IC50: 23 nM

Oc1ccc2c(c1)CCCC(c1cnc3[nH]ccc3c1)=C2c1ccc(O[C@H]2CCN(CCCF)C2)cc1 [Example 22, 5-[4-[(3S)-1-(3-fluoropropyl)pyrrolidin-3-yl]oxyphenyl]-6-(1H-pyrrolo[2,3-b]pyridin-5-yl)-8,9-dihydro-7H-benzo[7]annulen-2-ol]
IC50: 6 nM

CC(C)(C)OC(=O)N1CC=C(C2=C(c3ccc(O[C@H]4CCN(CCCF)C4)cc3)c3ccc(O)cc3CCC2)CC1 [Example 24, 4-(5-{4-[(S)-1-(3-fluoro-propyl)-pyrrolidin-3-yloxy]-phenyl}-2-hydroxy-8,9-dihydro-7H-benzocyclohepten-6-yl)-3,6-dihydro-2H-pyridine-1-carboxylic acid tert-butyl ester]
IC50: 63 nM

CN1CC=C(C2=C(c3ccc(O[C@H]4CCN(CCCF)C4)cc3)c3ccc(O)cc3CCC2)CC1 [Example 25, 5-[4-[(3S)-1-(3-fluoropropyl)pyrrolidin-3-yl]oxyphenyl]-6-(1-methyl-3,6-dihydro-2H-pyridin-4-yl)-8,9-dihydro-7H-benzo[7]annulen-2-ol]
IC50: 48 nM

Oc1ccc2c(c1)CCCC(C1=CCNCC1)=C2c1ccc(O[C@H]2CCN(CCCF)C2)cc1 [Example 26, 5-[4-[(3S)-1-(3-fluoropropyl)pyrrolidin-3-yl]oxyphenyl]-6-(1,2,3,6-tetrahydropyridin-4-yl)-8,9-dihydro-7H-benzo[7]annulen-2-ol]
IC50: 25 nM

CCOc1ccc(C2=C(c3ccc(O[C@H]4CCN(CCCF)C4)cc3)c3ccc(O)cc3CCC2)c(C)c1 [Example 27, 6-(4-ethoxy-2-methyl-phenyl)-5-[4-[(3S)-1-(3-fluoropropyl)pyrrolidin-3-yl]oxyphenyl]-8,9-dihydro-7H-benzo[7]annulen-2-ol]
IC50: 0.2 nM

Oc1ccc2c(c1)CCCC(c1ccc3occc3c1)=C2c1ccc(O[C@H]2CCN(CCCF)C2)cc1 [Example 28, 6-(benzofuran-5-yl)-5-[4-[(3S)-1-(3-fluoropropyl)pyrrolidin-3-yl]oxyphenyl]-8,9-dihydro-7H-benzo[7]annulen-2-ol]
IC50: 0.2 nM

COc1ccc(C2=C(c3ccc(O[C@H]4CCN(CCCF)C4)cc3)c3ccc(O)cc3CCC2)c(F)c1 [Example 29, 6-(2-fluoro-4-methoxy-phenyl)-5-[4-[(3S)-1-(3-fluoropropyl)pyrrolidin-3-yl]oxyphenyl]-8,9-dihydro-7H-benzo[7]annulen-2-ol]
IC50: 0.5 nM

Cc1cccc(C2=C(c3ccc(O[C@H]4CCN(CCCF)C4)cc3)c3ccc(O)cc3CCC2)c1C [Example 31, 6-(2,3-dimethylphenyl)-5-[4-[(3S)-1-(3-fluoropropyl)pyrrolidin-3-yl]oxyphenyl]-8,9-dihydro-7H-benzo[7]annulen-2-ol]
IC50: 4 nM

Cc1c(F)cccc1C1=C(c2ccc(O[C@H]3CCN(CCCF)C3)cc2)c2ccc(O)cc2CCC1 [Example 33, 6-(3-fluoro-2-methyl-phenyl)-5-[4-[(3S)-1-(3-fluoropropyl)pyrrolidin-3-yl]oxyphenyl]-8,9-dihydro-7H-benzo[7]annulen-2-ol]
IC50: 0.3 nM

CCOc1ccc(C2=C(c3ccc(O[C@H]4CCN(CCCF)C4)cc3)c3ccc(O)cc3CCC2)cn1 [Example 34, 6-(6-ethoxy-3-pyridyl)-5-[4-[(3S)-1-(3-fluoropropyl)pyrrolidin-3-yl]oxyphenyl]-8,9-dihydro-7H-benzo[7]annulen-2-ol]
IC50: 0.2 nM

Cc1ccc(C2=C(c3ccc(O[C@H]4CCN(CCCF)C4)cc3)c3ccc(O)cc3CCC2)cc1F [Example 35, 6-(3-fluoro-4-methyl-phenyl)-5-[4-[(3S)-1-(3-fluoropropyl)pyrrolidin-3-yl]oxyphenyl]-8,9-dihydro-7H-benzo[7]annulen-2-ol]
IC50: 0.2 nM

Cc1ccc(C2=C(c3ccc(O[C@H]4CCN(CCCF)C4)cc3)c3ccc(O)cc3CCC2)cc1Cl [Example 37, 6-(3-chloro-4-methyl-phenyl)-5-[4-[(3S)-1-(3-fluoropropyl)pyrrolidin-3-yl]oxyphenyl]-8,9-dihydro-7H-benzo[7]annulen-2-ol]
IC50: 0.5 nM

Oc1ccc2c(c1)CCCC(c1cccc(Cl)c1F)=C2c1ccc(O[C@H]2CCN(CCCF)C2)cc1 [Example 39, 6-(3-chloro-2-fluoro-phenyl)-5-[4-[(3S)-1-(3-fluoropropyl)pyrrolidin-3-yl]oxyphenyl]-8,9-dihydro-7H-benzo[7]annulen-2-ol]
IC50: 0.2 nM

COc1c(F)cccc1C1=C(c2ccc(O[C@H]3CCN(CCCF)C3)cc2)c2ccc(O)cc2CCC1 [Example 41, 6-(3-fluoro-2-methoxy-phenyl)-5-[4-[(3S)-1-(3-fluoropropyl)pyrrolidin-3-yl]oxyphenyl]-8,9-dihydro-7H-benzo[7]annulen-2-ol]
IC50: 0.2 nM

CCOc1ccc(C2=C(c3ccc(O[C@H]4CCN(CCCF)C4)cc3)c3ccc(O)cc3CCC2)c(F)c1 [Example 42, 6-(4-ethoxy-2-fluoro-phenyl)-5-[4-[(3S)-1-(3-fluoropropyl)pyrrolidin-3-yl]oxyphenyl]-8,9-dihydro-7H-benzo[7]annulen-2-ol]
IC50: 0.4 nM

CCOc1ccc(C2=C(c3ccc(O[C@H]4CCN(CCCF)C4)cc3)c3ccc(O)cc3CCC2)c(Cl)c1 [Example 43, 6-(2-chloro-4-ethoxy-phenyl)-5-[4-[(3S)-1-(3-fluoropropyl)pyrrolidin-3-yl]oxyphenyl]-8,9-dihydro-7H-benzo[7]annulen-2-ol]
IC50: 0.4 nM

Cc1ccc(C2=C(c3ccc(O[C@H]4CCN(CCCF)C4)cc3)c3ccc(O)c(F)c3CCC2)c(F)c1 [Example 45, 1-fluoro-6-(2-fluoro-4-methyl-phenyl)-5-[4-[(3S)-1-(3-fluoropropyl)pyrrolidin-3-yl]oxyphenyl]-8,9-dihydro-7H-benzo[7]annulen-2-ol]
IC50: 0.7 nM

Cc1ccc(C2=C(c3ccc(O[C@H]4CCN(CCCF)C4)cc3)c3ccc(C(=O)O)cc3CCC2)c(F)c1 [Example 48, 6-(2-fluoro-4-methyl-phenyl)-5-[4-[(3S)-1-(3-fluoropropyl)pyrrolidin-3-yl]oxyphenyl]-8,9-dihydro-7H-benzo[7]annulene-2-carboxylic acid]
IC50: 0.7 nM
